This note sets out measurements from the BET-seq Pho4 binding data (Le et al. 2018).

The list shows a part of the results. These are noisy estimates, calculated here from bound and input reads.

The target of the assay is T1, Pho4 (S. cerevisiae) (UniProt P07270).
T1 sequence: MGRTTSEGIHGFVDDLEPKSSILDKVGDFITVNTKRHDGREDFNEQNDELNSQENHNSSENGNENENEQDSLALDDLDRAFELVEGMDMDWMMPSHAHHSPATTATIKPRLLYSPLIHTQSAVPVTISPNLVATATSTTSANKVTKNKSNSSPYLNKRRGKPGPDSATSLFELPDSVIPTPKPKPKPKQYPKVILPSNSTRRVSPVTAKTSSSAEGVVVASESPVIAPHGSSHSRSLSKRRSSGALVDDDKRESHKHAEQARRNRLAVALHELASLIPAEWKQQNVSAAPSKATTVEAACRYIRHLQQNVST
As to the kind of experiment: relative binding free energy (BET-seq); higher = weaker binding. The following applies: reference: library average.
TTTTGCACGTGTGTGA: the “relative binding free energy” value was 0.08 kcal/mol.

As for TAATGCACGTGGGAGC, the “relative binding free energy” value is -0.06 kcal/mol.

As to GGCGACACGTGGGTGG, the “relative binding free energy” value was -0.15 kcal/mol.

As for AGGGTCACGTGTTGCA, the “relative binding free energy” value was found to be 0.1 kcal/mol.

As for TTTGGCACGTGAGAGG, the “relative binding free energy” value was determined as 0.12 kcal/mol.

Turning to GGTCTCACGTGGGACG, the “relative binding free energy” value was 0.26 kcal/mol.

On to CGGGACACGTGGTAAT, for which the “relative binding free energy” value was 0.16 kcal/mol.

As to CGGTCCACGTGAAGGG, the “relative binding free energy” value worked out at 0.19 kcal/mol.

Regarding GTAGCCACGTGGGGAA, the “relative binding free energy” value is -0.06 kcal/mol.

Take TGCTGCACGTGTAATT: the “relative binding free energy” value worked out at 0.14 kcal/mol.

Turning to TTCATCACGTGGTAAG, the “relative binding free energy” value turned out to be 0.12 kcal/mol.

On to AGTTGCACGTGTGCGG, for which the “relative binding free energy” value is -0.1 kcal/mol.

In the case of AAAAGCACGTGGGGGG, the “relative binding free energy” value was -0.2 kcal/mol.

For GTGATCACGTGGAAGT, the “relative binding free energy” value stood at 0.3 kcal/mol.

For CGTGGCACGTGATTTT, the “relative binding free energy” value is -0.05 kcal/mol.

Regarding TTGGGCACGTGTCATA, the “relative binding free energy” value was -0.12 kcal/mol.

For the sequence AATCTCACGTGAAGTT, the “relative binding free energy” value is 0.41 kcal/mol.

ACTTGCACGTGATGGT: the “relative binding free energy” value was 0.16 kcal/mol.

As to TCGTGCACGTGTGGTC, the “relative binding free energy” value is -0.04 kcal/mol.

As for TTCTACACGTGATTTG, the “relative binding free energy” value came out at 0.3 kcal/mol.

Regarding TGTTACACGTGGGAAA, the “relative binding free energy” value was 0.12 kcal/mol.

In the case of TAGGTCACGTGTGCTT, the “relative binding free energy” value was determined as 0.06 kcal/mol.

Turning to TGAATCACGTGAGGGG, the “relative binding free energy” value is 0.49 kcal/mol.

Take CGTGGCACGTGAGGAA: the “relative binding free energy” value was 0.11 kcal/mol.

For AACAACACGTGGGGGT, the “relative binding free energy” value was -0.1 kcal/mol.

Consider ATTGGCACGTGGGGCA, for which the “relative binding free energy” value is -0.22 kcal/mol.

With TGCGTCACGTGCTATT, the “relative binding free energy” value was determined as 0.11 kcal/mol.

As for GGATTCACGTGCGTGG, the “relative binding free energy” value was determined as 0.28 kcal/mol.

With TTCGACACGTGTTGCG, the “relative binding free energy” value worked out at 0.09 kcal/mol.

As for GTATCCACGTGTGGTG, the “relative binding free energy” value was 0.03 kcal/mol.

Turning to GGTAACACGTGGAAGG, the “relative binding free energy” value is 0.07 kcal/mol.

For the sequence ATTTTCACGTGGTCGA, the “relative binding free energy” value amounted to 0.15 kcal/mol.

Regarding TGAATCACGTGGGTAC, the “relative binding free energy” value turned out to be 0.08 kcal/mol.

For the sequence CTGGGCACGTGGAAGA, the “relative binding free energy” value came to 0.08 kcal/mol.

Regarding GAGTGCACGTGTTGTG, the “relative binding free energy” value was -0.02 kcal/mol.

Regarding TGTGTCACGTGAAGGC, the “relative binding free energy” value came out at 0.23 kcal/mol.

On to TGGTGCACGTGGCCGT, for which the “relative binding free energy” value was -0.06 kcal/mol.

As to TGGTGCACGTGTCATG, the “relative binding free energy” value is -0.14 kcal/mol.

Take GCTGTCACGTGGCGGA: the “relative binding free energy” value was determined as 0.06 kcal/mol.

For GTTAACACGTGCTTTT, the “relative binding free energy” value was 0.02 kcal/mol.

Consider GTTGCCACGTGATGGG, for which the “relative binding free energy” value amounted to 0.21 kcal/mol.

For the sequence TTGTTCACGTGGACAG, the “relative binding free energy” value was 0.14 kcal/mol.

As for AGGTGCACGTGACCGG, the “relative binding free energy” value was 0.01 kcal/mol.

For GTTTTCACGTGAAGTC, the “relative binding free energy” value stood at 0.3 kcal/mol.

Turning to CCTGGCACGTGGAGTT, the “relative binding free energy” value is -0.05 kcal/mol.

As to AAGGTCACGTGGTTCG, the “relative binding free energy” value was found to be 0.29 kcal/mol.

Regarding TTGAACACGTGGGCGG, the “relative binding free energy” value was found to be 0.01 kcal/mol.

As for TGGGGCACGTGGGTAG, the “relative binding free energy” value was -0.15 kcal/mol.

On to TTTTCCACGTGGCGGC, for which the “relative binding free energy” value is 0.16 kcal/mol.

As to GCATTCACGTGAGGGG, the “relative binding free energy” value stood at 0.27 kcal/mol.

On to ATGGACACGTGAAAGG, for which the “relative binding free energy” value is 0.27 kcal/mol.

Regarding GCGTACACGTGTTTAT, the “relative binding free energy” value stood at 0.15 kcal/mol.

With GCGTTCACGTGGGGCT, the “relative binding free energy” value was found to be 0.19 kcal/mol.

As for ATGTTCACGTGACGGG, the “relative binding free energy” value was determined as 0.36 kcal/mol.

As for AGTTACACGTGATAAT, the “relative binding free energy” value was 0.31 kcal/mol.

For the sequence TTACGCACGTGTGGAG, the “relative binding free energy” value was -0.09 kcal/mol.

Consider AGTTTCACGTGGGGTG, for which the “relative binding free energy” value was found to be 0.16 kcal/mol.

Turning to TGAGGCACGTGTTAAA, the “relative binding free energy” value is -0.03 kcal/mol.

Take TATAACACGTGTGGGG: the “relative binding free energy” value is 0.13 kcal/mol.

Turning to CGGAGCACGTGTTGCA, the “relative binding free energy” value was determined as 0.21 kcal/mol.

In the case of GGGGCCACGTGCGGGA, the “relative binding free energy” value is -0.14 kcal/mol.

In the case of TGAGTCACGTGACGGT, the “relative binding free energy” value was found to be 0.25 kcal/mol.

Take GAGTACACGTGTCAGG: the “relative binding free energy” value worked out at 0.25 kcal/mol.

Regarding GGGAACACGTGGGTCG, the “relative binding free energy” value turned out to be 0 kcal/mol.

With GAGCGCACGTGAGTGT, the “relative binding free energy” value amounted to 0.21 kcal/mol.

Consider ATCGTCACGTGACGGG, for which the “relative binding free energy” value was 0.23 kcal/mol.

With TGGGGCACGTGTAGCC, the “relative binding free energy” value turned out to be 0.04 kcal/mol.

Take TTGGTCACGTGGAAGT: the “relative binding free energy” value came to 0.26 kcal/mol.

Take AACTTCACGTGAGGTT: the “relative binding free energy” value was 0.46 kcal/mol.

As to GTTGTCACGTGTCTGG, the “relative binding free energy” value was found to be 0.05 kcal/mol.

Turning to CATGTCACGTGTGCGT, the “relative binding free energy” value was 0.13 kcal/mol.

On to CTAAGCACGTGTGTTT, for which the “relative binding free energy” value stood at 0.04 kcal/mol.

With GGAGGCACGTGTGGAA, the “relative binding free energy” value was -0.01 kcal/mol.
